Reference: PubChem BioAssay AID938 (National Center for Advancing Translational Sciences (NCATS), 2007)
Values joined by “and” are separate entries in the source; they are usually repeats but may differ in a detail not shown here. Equal values may be shown once. Screen size: about 73,000 compounds; about 1,800 (2.5%) were called active. Inconclusive results, whose numbers are uncertain, are shown with a selection of clear calls. Calls come from the whole dose curve; as a rule, active = well fitted activation curve with a large enough effect; inconclusive = small, poorly fitted or top-dose-only effect; inactive = no such curve, though single readings can be large or run the other way. Potencies beside an inconclusive call are fits to weak or partial responses and may not hold up.

Experiment: qHTS Assay for Agonists of the Thyroid Stimulating Hormone Receptor: Activators of Intracellular cAMP Concentrations in Parental HEK 293; note: nearly all actives have a fitted effect of over 55% in size; for activation: % of control where 0% means no effect
Conditions: parental HEK293 CNG cAMP sensor, membrane potential fluorescence; activation: at 57.1 µM (top of the series)
From the text: NIH Chemical Genomics Center [NCGC]
NIH Molecular Libraries Screening Centers Network [MLSCN]
PI Name: Dr. Marvin Gershengorn
This cell based assay utilized a cyclic nucleotide gated ion channel (CNG) as a biosensor for cAMP induction. HEK 293 cells stably expressing the modified CNG were purchased from BD biosciences (http://www.atto.com/products/actone/features_benefits.shtml) . Stimulation of cAMP production causes the CNG to open and subsequent membrane depolarization to occur. A fluorescent membrane potential dye (BD biosciences) was utilized to detect cAMP stimulation in cells.
The cells were maintained in DMEM medium (Invitrogen) containing 10 % FBS (Hyclone), 100 units/ml Penicillin, 100 ug/ml Streptomycin (Invitrogen), and 250 ug/ml Geneticin (Invitrogen) and 1 ug/ml Puromycin (Invitrogen) at 37C in 5% CO2. This assay was used as a counterscreen to "qHTS Assay for Agonists of the Thyroid Stimulating Hormone Receptor", to control for compounds signaling through endogenous receptors and other targets of HEK 293 cells.
NCGC Assay Protocol Summary:
High Throughput Screening. Freshly passaged cells were dispensed into 1536-well assay plates at 4 ul/well in DMEM containing phenol red (Invitrogen), 10% FCS (Hyclone), and 100 units/ml Penicillin, 100 ug/ml Streptomycin (Invitrogen) and incubated at 37 C with 5% CO2 for 20 to 36 hrs before the robotic screening. The screen was initiated by addition of 4 ul/well membrane potential dye containing 100 uM RO 20-1724 (Sigma Aldrich), followed by 60 min incubation at room temperature to allow for dye equilibration across the cell membrane. 23 nl/well compound or control was then added to the assay plates, which were incubated for additional 30 min before reading a Envision fluorescence plate reader (Perkin Elmer) in bottom-read mode for fluorescence intensity (emission at 590 nm).
Keywords: cAMP, CNG Ion Channel, quantitative high throughput screening, qHTS, HTS, probe identification, CNG, cAMP, cyclic nucleotide gated ion channel PubChem
Potency is the fitted concentration of half-maximal effect; tags give direction and shape of the fitted curve.

Structure (SMILES) | Potency | activation
C=C[C@@H]1C[C@@]1(C)[C@@H](NP(=O)(c1ccccc1)c1ccccc1)c1ccccc1 | active: 5.01 µM | 
CN[C@H]1[C@H]2[C@H]3CCN2C[C@@H]1O3 | inactive | 
CCOC(=O)C1SC2(C(F)(F)F)CC1(O)c1c(C)cc(C)nc1O2 (stereo unspecified) | inconclusive: 15.8 µM [activator, partial curve] | 
C[C@H]1OC[C@@H](C[N+](C)(C)C)O1 | inconclusive: 3.16 µM [activator, single point] | 
O=C(NC1(C(F)(F)F)Oc2ccccc2O1)N1CCC2(CC1)OCCO2 | inconclusive: 7.94 µM [activator, single point] | 
CC(=O)c1c(O)n(C)c(=S)n(-c2ccccc2)c1=O | active: 1 µM | 
C[C@]12Cc3cn4c(nc3C=C1CC[C@H]1[C@@H]2CC[C@@]2(C)[C@H]1CC[C@@]2(O)C#N)nc1ccccc14 | inconclusive: 3.98 µM [activator, single point] | 
O=C1CCO1 | inactive | 
c1ccc2c(c1)CCCC2 | inconclusive: 39.8 µM [activator, single point] | 
NCCc1c[nH]c2ccc(C(N)=O)cc12 | inconclusive: 6.31 µM [activator, single point] | 
CC(=O)[C@@H]1CC[C@@H]2[C@@H]3CCC4=CC(=O)CC[C@@]4(C)[C@H]3CC[C@]21C | inconclusive: 20 µM [activator, partial curve] and inconclusive: 12.6 µM [activator, partial curve] | 
CCCCCCCCC(=O)NCc1ccc(O)c(OC)c1 | inactive | 
CC(C)[C@]1(NC(=O)[C@H]2C=C3c4cccc5[nH]cc(c45)C[C@H]3N(C)C2)O[C@@]2(O)[C@H]3CCCN3C(=O)[C@H](Cc3ccccc3)N2C1=O | inactive | 
C[C@@]12CC[C@H]3[C@@H](CC[C@@H]4C[C@H](O)CC[C@]43C)[C@H]1CC[C@H]2O | inconclusive: 3.16 µM [activator, single point] | 
CN[C@H]1[C@H](C)O[C@@H](O[C@@H]2C/C=C(/C)C/C(C)=C\C=C/CC[C@@H](C)CNC(=O)/C=C\C=C/[C@H]2C)C[C@@H]1O |  | inactive: 4.43% [at 11.4 µM]
CC(C)c1cccc(C(C)C)c1OCCn1ccnc1 | inconclusive: 39.8 µM [activator, single point] | 
CCOP(=O)(NC(C)C)Oc1ccc(SC)c(C)c1 (stereo unspecified) | inconclusive: 31.6 µM [activator, partial curve, poor fit] | 
CC(C)=CCCC(C)CN(C)CCc1ccccn1 (stereo unspecified) | inconclusive: 15.8 µM [activator, partial curve] | 
O=C(O)CN1CCN(CC(=O)O)CC(=O)[O][Hg][O]C(=O)C1 |  | inactive: -6.56% [at 11.4 µM]
O=C1CC(N2CCC(n3c(=O)[nH]c4ccccc43)CC2)C(=O)N1Cc1ccccc1 (stereo unspecified) | inconclusive: 5.01 µM [activator, single point] | 
COc1cc(C[C@H](C)N)c(OC)cc1I | inconclusive: 6.31 µM [activator, single point] | 
CN1CCCC2(CCN(C(=O)c3csnn3)CC2)C1 | inconclusive: 6.31 µM [activator, single point] | 
COc1ccccc1N1CCN(Cc2ccccc2Cl)CC1 | inactive | 

Structure (SMILES) | Potency | activation
N[C@H](Cc1ccc2oc3cc(=O)c4ccccc4c-3nc2c1)C(=O)O |  | inactive: -8.03% [at 11.4 µM]
CN1[C@@H]2CC[C@H]1CC(OC(c1ccc(F)cc1)c1ccc(F)cc1)C2 (stereo partly specified) | active: 31.6 µM | 
CCOP(=S)(OCC)SCSC(C)(C)C | inconclusive: 31.6 µM [activator, single point] | 
Cc1nn(C2CCOC(C)(C)C2)c2c1C(c1ccc3c(c1)OCO3)SCC(=O)N2 (stereo unspecified) | inactive | 
CN1CCCC2(CCN(C(=O)c3ccncc3)CC2)C1 | active: 10 µM | 
CCCNC(=O)c1c(N)n(CC2CCCO2)c2nc3ccccc3nc12 (stereo unspecified) | inconclusive: 5.01 µM [activator, partial curve] | 
c1cc2c(cc1[C@H]1OC[C@H]3[C@@H]1CO[C@H]3c1ccc3c(c1)OCO3)OCO2 |  | inconclusive: 33.3% [activator]
O=c1[nH]c(=O)n(Cc2ccccc2)c(O)c1C=Nc1ccc(CN2CCOCC2)cc1 | inconclusive: 31.6 µM [activator, single point] | 
CC1(C)CN=C(NCc2ccccc2Cl)S1 | inconclusive: 15.8 µM [activator, partial curve] | 
CN1CCN(c2ccc(N)c(N3CCN(C)CC3)c2)CC1 | inactive | 
C[C@@H](COc1ccccc1)N(CCCl)Cc1ccccc1 | inconclusive: 6.31 µM [activator, single point] | 
CN(C)C(=O)Oc1ccc[n+](C)c1 | inconclusive: 39.8 µM [activator, single point] | 
O=C(CSc1ccccc1)N1CCC2(CC1)OCCO2 | inactive | 
CCSc1cc(C2C(C#N)=C(N)Oc3n[nH]c(C)c32)c(C)o1 (stereo unspecified) | inconclusive: 1.26 µM [activator, single point] | 
O[C@H]1CCCC[C@H]1N1CCC(c2ccccc2)CC1 | inconclusive: 31.6 µM [activator, partial curve] | 
Cc1c(N)cccc1N | inconclusive: 39.8 µM [activator, single point] | 
CC(=O)[O][Hg][c]1ccccc1 |  | inconclusive: 44.4% [activator]
COC(=O)c1cn(CCOc2ccccc2)c2ccccc12 | active: 20 µM | 
CN(C(=O)c1ccco1)C1(c2ccccc2Cl)CCCCC1=O (stereo unspecified) | active: 20 µM | 
O=C(NCCCN1CCOCC1)NC12CC3CC(CC(C3)C1)C2 | inconclusive: 3.98 µM [activator, single point] | 
COC(=O)[C@]1(C)C[C@H]1[C@H](NP(=O)(c1ccccc1)c1ccccc1)c1ccccc1 | inconclusive: 20 µM [activator, partial curve] | 
CC(=O)NCCc1c[nH]c2ccccc12 | inconclusive: 5.01 µM [activator, single point] | 
CCCCCCCCn1sccc1=O | inconclusive: 7.94 µM [activator, full curve] | 
